Results are given in words; binding and its absence hold for the method and conditions named. Some results given as binding are weak or reduced against the parent protein; the word gives no strength.
Key:
Test in all cases: ITC; peptide (4 mM) injected into FIP200 claw protein (0.25 mM); 20 °C; buffer B (50 mM NaH2PO4, 150 mM NaCl, pH 7.0); single binding site model; both purified
[1] = biological target: FIP200 claw domain (1490-1594) K1569E (human) (UniProt Q8TDY2)
[2] = biological target: FIP200 claw domain (1490-1594) Y1564A (human) (UniProt Q8TDY2)
[3] = biological target: FIP200 claw domain (1490-1594) R1573E (human) (UniProt Q8TDY2)
[4] = biological target: T1, FIP200 claw domain (1490-1594) K1568A (human, UniProt Q8TDY2 1490-1594, K1568A)
T1 construct: source: E. coli Rosetta (DE3), purified (Ni-NTA, Superdex 200, HiTrap SP FF); not shown: SUMO, N-terminal, cleaved

Sequences of proteins named here, by UniProt entry; tags and fusion partners are left off. A change or cut given only in a name is not applied to a line headed by its entry. A line that says so, or that is headed by a name, gives the form on record, which may keep a tag or linker. Residues count along the entry.
FIP200 claw domain (1490-1594) (Q8TDY2, residues 1490-1594): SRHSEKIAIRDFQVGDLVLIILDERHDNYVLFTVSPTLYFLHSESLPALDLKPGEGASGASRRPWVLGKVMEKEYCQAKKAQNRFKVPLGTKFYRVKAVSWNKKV
FIP200 claw domain (1490-1594) K1569E (Q8TDY2, form named): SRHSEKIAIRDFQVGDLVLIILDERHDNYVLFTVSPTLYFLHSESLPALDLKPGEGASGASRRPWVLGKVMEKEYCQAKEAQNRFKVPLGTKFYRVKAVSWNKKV
FIP200 claw domain (1490-1594) Y1564A (Q8TDY2, form named): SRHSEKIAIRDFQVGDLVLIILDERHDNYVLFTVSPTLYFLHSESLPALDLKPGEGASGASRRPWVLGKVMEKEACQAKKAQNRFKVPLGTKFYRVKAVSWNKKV
FIP200 claw domain (1490-1594) R1573E (Q8TDY2, form named): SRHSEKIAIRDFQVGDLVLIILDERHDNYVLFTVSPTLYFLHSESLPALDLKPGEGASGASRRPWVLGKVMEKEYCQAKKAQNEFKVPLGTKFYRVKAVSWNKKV
FIP200 claw domain (1490-1594) K1568A (Q8TDY2, form named): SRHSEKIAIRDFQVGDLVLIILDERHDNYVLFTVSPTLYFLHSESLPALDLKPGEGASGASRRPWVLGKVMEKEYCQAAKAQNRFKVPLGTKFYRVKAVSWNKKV
FIP200 claw domain (1490-1594) F1574A (Q8TDY2, form named): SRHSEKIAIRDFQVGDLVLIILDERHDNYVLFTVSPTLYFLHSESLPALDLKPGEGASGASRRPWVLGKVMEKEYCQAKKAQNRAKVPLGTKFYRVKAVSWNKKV
FIP200 claw domain (1490-1594) K1568E (Q8TDY2, form named): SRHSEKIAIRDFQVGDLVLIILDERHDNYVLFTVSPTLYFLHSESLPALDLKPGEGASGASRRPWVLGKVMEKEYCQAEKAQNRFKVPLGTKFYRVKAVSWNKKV
FIP200 claw domain (1490-1594) K1569A (Q8TDY2, form named): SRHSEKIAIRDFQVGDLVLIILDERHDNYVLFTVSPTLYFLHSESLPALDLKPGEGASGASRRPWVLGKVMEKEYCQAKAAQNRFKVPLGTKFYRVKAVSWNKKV
FIP200 claw domain (1490-1594) R1584A (Q8TDY2, form named): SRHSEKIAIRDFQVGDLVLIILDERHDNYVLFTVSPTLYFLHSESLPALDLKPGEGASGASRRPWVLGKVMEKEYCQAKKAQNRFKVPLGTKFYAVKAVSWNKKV
FIP200 claw domain (1490-1594) F1582A (Q8TDY2, form named): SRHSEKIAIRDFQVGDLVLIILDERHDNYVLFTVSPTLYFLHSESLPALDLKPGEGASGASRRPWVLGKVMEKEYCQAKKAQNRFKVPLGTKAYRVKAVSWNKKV

[5] = biological target: FIP200 claw domain (1490-1594) F1574A (human) (UniProt Q8TDY2)
[6] = biological target: FIP200 claw domain (1490-1594) K1568E (human) (UniProt Q8TDY2)
[7] = biological target: FIP200 claw domain (1490-1594) K1569A (human) (UniProt Q8TDY2)
[8] = biological target: FIP200 claw domain (1490-1594) R1584A (human) (UniProt Q8TDY2)
[9] = biological target: FIP200 claw domain (1490-1594) F1582A (human) (UniProt Q8TDY2)
[10] = biological target: T2, FIP200 claw domain (1490-1594) (human, UniProt Q8TDY2 1490-1594)
T2 construct: the ITC N counts peptide per claw chain; also called FIP200 claw domain WT; WT; source: E. coli Rosetta (DE3), purified (Ni-NTA, Superdex 200, HiTrap SP FF); not shown: SUMO, N-terminal, cleaved

Binder | binding [1] | binding [2] | binding [3] | binding [4] | binding [5] | binding [6] | binding [7] | binding [8] | binding [9] | binding [10]
SSGTSSEFEVV (phosphoserine at 123 (SSGTS-pS-EFEVV)) [TNIP1_pS123 peptide] | no binding (tested: 4 mM peptide into 0.25 mM protein) | no binding (tested: 4 mM peptide into 0.25 mM protein) | no binding (tested: 4 mM peptide into 0.25 mM protein) | binds weakly | no binding (tested: 4 mM peptide into 0.25 mM protein) | no binding (tested: 4 mM peptide into 0.25 mM protein) | no binding (tested: 4 mM peptide into 0.25 mM protein) | no binding (tested: 4 mM peptide into 0.25 mM protein) | no binding (tested: 4 mM peptide into 0.25 mM protein) | 
SSGTSSEFEVVTPEEQ [TNIP1_FIR^long peptide (unmodified)] |  |  |  |  |  |  |  |  |  | binds weakly
